{"source": "PubChem BioAssay AID743279", "about": "(National Center for Advancing Translational Sciences (NCATS), 2014)", "note": "Out of some 360,000 compounds screened, about 17,000 (4.7%) were called active. Inconclusive means that the source gave no clear call. Such entries were picked first, then a sample of the others. No stated cut-off is given here; in the data, active means activity change below about -50%; inconclusive means mostly about -30% to -49%; inactive means weaker than that. On the % scale 0 is the no-effect control and ±100 the full control effect."}
{"experiment": "qHTS for Inhibitors of Inflammasome Signaling: IL-1-beta AlphaLISA Primary Screen", "conditions": "THP-1 LPS/ATP IL-1B secretion, 16 h; at 57.5 µM, stronger effect = lower value", "how_it_was_run": "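Secreted IL-1B measured by AlphaLISA bead assay after 16 h compound exposure of THP-1 cells; compounds (final up to 57.5 uM) added 1 h before LPS (250 ng/mL) and ATP (1.25 mM) stimulation; lower signal means less secretion.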"}
{"smiles": "Cc1cc(NC(=O)C(C)SCC(=O)Nc2ccccc2N2CCCC2)no1", "note": "(configuration not stated)", "activity change": "inactive: 21.6%"}
{"smiles": "COc1ccc(C(O)P(=O)(OCC(C)C)c2ccc(N(C)C)cc2)c(OC)c1", "note": "(configuration not stated)", "activity change": "inactive: -0.814%"}
{"smiles": "COc1cc(OC)cc(C(=O)N2CCN=C2SCc2cccnc2)c1", "activity change": "inconclusive: -30.3%"}
{"smiles": "Nc1c(N2CCN(c3ccccc3)CC2)c2ccccc2oc1=O", "activity change": "inactive: -21.9%"}
{"smiles": "COc1ccc(C)cc1S(=O)(=O)N(CC(=O)N1CCCC1)c1ccccc1", "activity change": "inactive: 12.3%"}
{"smiles": "Cn1c(O)c(N=NC(=O)c2cc(-c3cccs3)nc3ccccc23)c2ccccc21", "activity change": "inactive: 15.3%"}
{"smiles": "c1ccc(CSc2nnc3ccc(-c4ccncc4)nn23)nc1", "activity change": "inconclusive: -48.7%"}
{"smiles": "O=C(NC(c1ccc(Cl)cc1)c1c(O)ccc2ccccc12)c1ccccc1", "note": "(configuration not stated)", "activity change": "inconclusive: -40.2%"}
{"smiles": "Cc1c(C(=O)NCc2cccs2)oc2ccc(Br)cc12", "activity change": "inactive: -17.1%"}
{"smiles": "COc1cccc(N2CCN(c3ccc([N+](=O)[O-])cn3)CC2)c1", "activity change": "inactive: 0%"}
{"smiles": "CSc1ccc2c(c1)C(N1CCN(C)CC1)Cc1ccccc1S2", "note": "(configuration not stated)", "activity change": "inconclusive: -33.3%"}
{"smiles": "Cn1cnc([N+](=O)[O-])c1Oc1ccccc1", "activity change": "inconclusive: -46.9%"}
{"smiles": "Cc1ccc(C(=O)N2CCCC(C(=O)c3ccc(Oc4ccccc4)cc3)C2)cn1", "note": "(configuration not stated)", "activity change": "active: -79.9%"}
{"smiles": "CCc1nc2c(OCC(=O)c3ccc(Cl)cc3Cl)cccn2c1N(C)C(=O)c1cccs1", "activity change": "inconclusive: -33.9%"}
{"smiles": "CCCCN(C(=O)c1ccc(-c2ccc(Cl)cc2)o1)c1c(N)n(CCCC)c(=O)[nH]c1=O", "activity change": "inactive: -13.8%"}
{"smiles": "NC(c1csc(NC(=O)Nc2ccc(OC(F)(F)F)cc2)n1)C1CCCCC1", "note": "(configuration not stated)", "activity change": "active: -112%"}
{"smiles": "COC(=O)c1c(NC(=O)Cc2cccs2)sc2c1CCC(C)C2", "note": "(configuration not stated)", "activity change": "active: -83.4%"}
{"smiles": "O=C(Cc1csc(NC(=O)Nc2cccc(Cl)c2)n1)NCc1cccnc1", "activity change": "inconclusive: -44.1%"}
{"smiles": "COc1cc(/C=N/NC(=O)CN(Cc2ccccc2)S(=O)(=O)c2ccc3c(c2)OCCO3)ccc1O", "activity change": "inconclusive: -34.5%"}
{"smiles": "CCS(=O)(=O)c1cc([N+](=O)[O-])c(Sc2ccccc2NC(C)=O)s1", "activity change": "inactive: -18.5%"}
{"smiles": "COc1ccc(C(=O)c2oc3ccc(OC)cc3c2N)cc1", "activity change": "inconclusive: -49.2%"}
{"smiles": "O=C(CSc1nnc(-c2ccc(F)cc2)o1)Nc1ccc(S(=O)(=O)N2CCCCCC2)cc1", "activity change": "inactive: 11%"}
{"smiles": "Cc1cc(C)c(NC(=S)NCC2CCN(C(C)c3ccccc3)C2)c(C)c1", "note": "(configuration not stated)", "activity change": "inconclusive: -30.5%"}
{"smiles": "O=C(NC1CCSc2ccccc21)c1cc([N+](=O)[O-])ccc1N1CCOCC1", "note": "(configuration not stated)", "activity change": "inactive: -14.2%"}
{"smiles": "COc1ccccc1/C=C1\\SC(=S)N(Nc2nc(C)cc(C)n2)C1=O", "activity change": "inactive: 18.4%"}
{"smiles": "CCOc1ncccc1C(=O)N1CCN(Cc2ccc3c(c2)OCO3)CC1", "activity change": "inconclusive: -41.3%"}
{"smiles": "COc1cc(CNCc2ccc(OC)c(OC)c2OC)cc(OC)c1", "activity change": "inconclusive: -43.8%"}
{"smiles": "CC(=O)Nc1nc(S(=O)(=O)c2ccc(C)cc2)c(Cl)s1", "activity change": "inconclusive: -31.7%"}
{"smiles": "CCOc1ccc(NC(=O)c2c(N)n(C)c(=O)[nH]c2=O)cc1", "activity change": "inactive: -9.75%"}
{"smiles": "CCOC(=O)CN1C(=O)/C(=C/c2c(F)cccc2Cl)Oc2ccccc21", "activity change": "inconclusive: -33%"}
{"smiles": "O=C(N/N=C/c1cn(-c2ccccc2)nc1-c1ccccc1)c1ccco1", "activity change": "inactive: 11%"}
{"smiles": "Clc1ccc(CSc2nnc3ccccn23)c(Cl)c1", "activity change": "inconclusive: -31.4%"}
{"smiles": "COc1nc(Nc2ccc(O)cc2)nc(OC(C(F)(F)F)C(F)(F)F)n1", "activity change": "inconclusive: -30.3%"}
{"smiles": "O=C1c2ccccc2C(=O)N1CCCCN(C(=O)c1ccc(Cl)s1)c1ccc(Cl)cc1", "activity change": "inactive: -22.1%"}
{"smiles": "Cc1ccc(Nc2nc(N)nc(CN3CCc4ccccc4C3)n2)cc1", "activity change": "inconclusive: -33.3%"}
{"smiles": "Cc1ccc(C)c(N2CN(CCC3=CCCCC3)CNC2=S)c1", "activity change": "inconclusive: -43.7%"}
{"smiles": "COc1ccc(N=c2scc(-c3ccc(OC)cc3)n2CCO)cc1", "activity change": "inconclusive: -31.8%"}
{"smiles": "C1CCCCCC(NCCN2CCNCC2)CCCCC1", "activity change": "inconclusive: -42.7%"}
{"smiles": "Cc1c(-n2cc(C(=O)c3cc(F)ccc3O)cc(C#N)c2=O)c(=O)n(-c2ccccc2)n1C", "activity change": "active: -55.9%"}
{"smiles": "Cc1ccc(/C=N/c2sc3c(c2C(N)=O)CCCC3)o1", "activity change": "inconclusive: -40.4%"}
{"smiles": "CCOc1cc(C2Nc3cccc4cccc(c34)N2)ccc1O", "activity change": "inconclusive: -35.8%"}
{"smiles": "Cc1ccc(OCCC(=O)Nc2ccc(S(=O)(=O)N3CCCC3)cc2)cc1", "activity change": "inconclusive: -33.1%"}
{"smiles": "CCOC(=O)c1ccc2c(c1)nc(SCc1cn3ccsc3n1)n2CC", "activity change": "inconclusive: -31.3%"}
{"smiles": "Cc1[nH]c2ccccc2c1C(=O)C(C)OC(=O)C1CCC1", "note": "(configuration not stated)", "activity change": "inactive: 0.0396%"}
{"smiles": "O=C(Cn1nc(CNc2ccc(Cl)cc2)[n+]2c1CCCCC2)c1ccc(Cl)cc1", "activity change": "inconclusive: -44.9%"}
{"smiles": "O=[N+]([O-])/C=C/c1cn(Cc2ccc(Cl)cc2)c2ccccc12", "activity change": "inconclusive: -47.5%"}
{"smiles": "COc1ccc(C2c3c(C)nn(-c4ccccc4)c3NC(=O)N2c2ccccc2)cc1", "note": "(configuration not stated)", "activity change": "inconclusive: -40.1%"}
{"smiles": "C=CCn1c(=O)c2ccccc2n2c(SC(C)C(=O)Nc3nc(-c4ccccc4)cs3)nnc12", "note": "(configuration not stated)", "activity change": "inactive: -18%"}
{"smiles": "CCCn1c(=N)n(CC(=O)c2ccc(Cl)cc2)c2ccccc21", "activity change": "active: -66%"}
{"smiles": "CC(=O)NCC1(O)CCCC(C)C1", "note": "(configuration not stated)", "activity change": "inactive: -11.4%"}
{"smiles": "Cc1ccc(CSc2nc3ccsc3c(=O)n2Cc2ccccn2)cc1", "activity change": "inconclusive: -33.3%"}
{"smiles": "Cn1c(NCc2ccc(Cl)cc2)nc2ccccc21", "activity change": "inconclusive: -43.4%"}
{"smiles": "O=C1c2ccccc2S(=O)(=O)c2cc(C(=O)N3CCN(c4ccc(Cl)cn4)CC3)ccc21", "activity change": "inconclusive: -32.5%"}
{"smiles": "Cc1ccccc1C(=O)N1CCN(c2ccc(NC(=O)c3cccs3)cc2)CC1", "activity change": "inconclusive: -41.1%"}
{"smiles": "COC(=O)CSc1nsc(SCC(=O)OC)c1C#N", "activity change": "active: -99.6%"}
{"smiles": "COC(=O)CSc1nnc(CNS(=O)(=O)c2ccc(Cl)cc2)n1C", "activity change": "inconclusive: -37.1%"}
{"smiles": "O=c1[nH]c(O)c(/C=C2\\C=Nc3ccc(Br)cc32)[nH]1", "activity change": "inconclusive: -40.2%"}
{"smiles": "COc1ccccc1NC(=O)c1cc(S(=O)(=O)N2CCCCCC2)ccc1F", "activity change": "inconclusive: -34.4%"}
{"smiles": "CCNC(=O)C1CCCN(C(=O)c2ccc(C(F)(F)F)cc2)CC1", "note": "(configuration not stated)", "activity change": "inactive: 28%"}
{"smiles": "CCCCOC(=O)C1=C(C)Nc2nnnn2C1c1ccccc1Cl", "note": "(configuration not stated)", "activity change": "inactive: 7.59%"}
{"smiles": "CCc1nc2ccc(C(=O)N(C)Cc3ccco3)cn2c1N(C)Cc1ccc(OC)cc1", "activity change": "inconclusive: -31.3%"}
{"smiles": "COc1ccc(CN2C3CCCC2CC(NC(=O)Nc2cccc(C)c2)C3)cc1", "note": "(configuration not stated)", "activity change": "inconclusive: -38.7%"}
{"smiles": "Cc1ccc(C(C(=O)NC2CCCCC2)N(C(=O)Cc2c[nH]c3ccccc23)c2ccccc2)o1", "note": "(configuration not stated)", "activity change": "inconclusive: -40.5%"}
{"smiles": "O=C(CS(=O)(=O)c1ccc2ccccc2c1)N1CCCCCC1", "activity change": "inconclusive: -44.5%"}
{"smiles": "Cc1c(C)n(C)c2ccc(C(=O)NCCCN3CCN(c4ccc(F)cc4)CC3)cc12", "activity change": "inconclusive: -34.2%"}
{"smiles": "COc1ccc(CCC(=O)Nc2ccc(OC)c(S(=O)(=O)N3CCCCC3)c2)cc1OC", "activity change": "inactive: 0%"}
{"smiles": "Cc1ccc(-c2nnc3sc(-c4ccncc4)nn23)cc1", "activity change": "inconclusive: -37.4%"}
{"smiles": "Cc1c(O)ccc(-c2[nH]ncc2-c2nc3ccccc3s2)c1O", "activity change": "inconclusive: -42.3%"}
{"smiles": "CC(=O)c1c(C)[nH]c(C(=O)COC(=O)Cc2ccccc2F)c1C", "activity change": "inactive: 16.7%"}
{"smiles": "CCOc1ccc(CNC(=O)c2ccc(Sc3ccc(Cl)cc3)c(NC(C)=O)c2)cc1OC", "activity change": "inconclusive: -44.3%"}
{"smiles": "O=C(c1cc(=O)[nH]c2ccccc12)N1CCN(c2ccccc2)CC1", "activity change": "inconclusive: -37.1%"}
{"smiles": "CC(=O)Nc1cc(C(=O)NCc2ccco2)ccc1Sc1ccc(Cl)cc1", "activity change": "inconclusive: -32.2%"}
{"smiles": "CC(C)C#Cc1cnc2c(c1)C(=O)N([C@@H](C)CO)C[C@@H](C)[C@H](CN(C)Cc1cccc(F)c1)O2", "activity change": "inconclusive: -37.5%"}
{"smiles": "Cc1cccc(N2CCN(C(=O)CCn3c(=O)[nH]c4ccccc4c3=O)CC2)c1C", "activity change": "inactive: 0%"}
{"smiles": "CC(C)CCn1nnnc1C(c1ccc(F)cc1)N1CCC(C(N)=O)CC1", "note": "(configuration not stated)", "activity change": "inconclusive: -34.3%"}
{"smiles": "CC(C)N(C(=O)Nc1ccc2nsnc2c1)C(C)C", "activity change": "inconclusive: -37.5%"}
{"smiles": "O=C(N/N=C/C=C/c1ccccc1)c1ccc(Br)cc1", "activity change": "inactive: -9.5%"}
{"smiles": "CCOc1ccc(N(CC(=O)NC2CCCCC2C)S(=O)(=O)c2c(C)noc2C)cc1", "note": "(configuration not stated)", "activity change": "inactive: 11.8%"}
{"smiles": "CC(=O)c1c(C)[nH]c(C(=O)OCC(=O)NCCC2=CCCCC2)c1C", "activity change": "inactive: 5.79%"}
{"smiles": "CN(CC(=O)N(C)CC(=O)Nc1c(Cl)cccc1Cl)Cc1ccccc1F", "activity change": "inactive: -14.1%"}
{"smiles": "C[C@H]1CN([C@@H](C)CO)C(=O)Cc2cc(NC(=O)CCN3CCOCC3)ccc2O[C@@H]1CN(C)Cc1ccc(Oc2ccccc2)cc1", "activity change": "inactive: -25.3%"}
{"smiles": "Nc1c(Cl)ncnc1N/N=C/c1ccc2ccccc2n1", "activity change": "active: -82.5%"}
{"smiles": "CN1CCN(c2nc(-c3ccccc3Cl)nc3ccccc23)CC1", "activity change": "inconclusive: -33%"}
{"smiles": "CNc1cc(CSC)nc(SCc2ccc(Cl)cc2Cl)n1", "activity change": "inconclusive: -39.1%"}
{"smiles": "COc1ccc(C2=NOC(C(=O)Nc3cccc(O)c3)C2)cc1", "note": "(configuration not stated)", "activity change": "inactive: -17.3%"}
{"smiles": "O=C(Nc1ccc(C2CC2(Cl)Cl)cc1)c1ccccc1Br", "note": "(configuration not stated)", "activity change": "inconclusive: -48.2%"}
{"smiles": "COc1ccc(S(=O)(=O)Nc2cccc3c2O[C@H](CN(C)Cc2ccc(-c4ccccc4)cc2)[C@@H](C)CN([C@H](C)CO)C3=O)cc1", "activity change": "inconclusive: -33.4%"}
